First the molecules themselves.
B1: TEV protease; numbered along this chain (parent)
chain: MGESLFKGPRDYNPISSSICHLTNESDGHTTSLYGIGFGPFIITNKHLFRRNNGTLVVQSLHGVFKVKDTTTLQQHLVDGRDMIIIRMPKDFPPFPQKLKFREPQREERICLVTTNFQTKSMSSMVSDTSCTFPSGDGIFWKHWIQTKDGQCGSPLVSTRDGFIVGIHSASNFTNTNNYFTSVPKNFMELLTNQEAQQWVSGWRLNADSVLWGGHKVFMVKPEEPFQPVKEATQL

11 variants from the supplement of paper PMC12217912 can be followed below.

Some of the results follow. The full chains were built here from the parent and the listed change. Values near 0.05 are background.
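Also: Bxb1 expression induced with 0.2% (w/v) L-rhamnose at OD600 near 0.5, cultures sampled hourly, flipped fraction per protease–substrate barcode pair counted by paired-end Illumina sequencing.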

Variants of B1 are the subject of the experiment. Put plainly: raw area under fraction-flipped curve 0-4 h after induction (AUC4h, not background-subtracted), DNA-recorder readout of cleavage of the substrate (dimensionless); higher = more cleavage of the substrate by the protease variant. The conditions noted are these: temperature: 34 °C; time window: 0-4 h after rhamnose induction.
For the variant MGESLFKGPRDYNPISSSICHLTNESDGHTTSLYGIGFGPFIITNKHLFRRNNGTLVVQSLHGVFKVKDTTTLQQHLVDGRDMIIIRMPKDFPPFPQKLKFREPQREERICLVTTNFQTKSMSSMVSDTSCTFPSGDGIFWKHWIQTKDGQCGSPLVSTRDGFIVGIHSASNFTNTNNYFTSVPDNFMELLTNQEAQQWVSGWRLNADSVLWGGHKVFMVKPEEPFQPVKEATQL [K185D], the “area with substrate ENEYFQS” value worked out at 0.0747, the “area with substrate ENGYFQS” value turned out to be 0.068, the “area with substrate ENHYFQS” value came out at 0.0555 and the “area with substrate ENMYFQS” value came to 0.0752. Besides, the “area with substrate ENQYFQS” value worked out at 0.0846, the “area with substrate ENRYFQS” value came to 0.0277 and the “area with substrate ENTYFQS” value came out at 0.0598.
MGESLFKGPRDYNPISSSICHLTNESDGHTTSLYGIGFGPFIITNKHLFRRNNGTLVVQSLHGVFKVKATTTLQQHLVDGRDMIIIRMPKDFPPFPQKLKFREPQREERICLVTTNFQTKSMSSMVSDTSCTFPSGDGIFWKHWIQTKDGQCGSPLVSTRDGFIVGIHSASNFTNTNNYFTSVPKNFMELLTNQEAQQWVSGWRLNADSVLWGGHKVFMVKPEEPFQPVKEATQL [D69A]: the “area with substrate ENEYFQS” value stood at 0.0662 and the “area with substrate ENTYFQS” value was 0.0547.
For the variant MGESLFKGPRDYNPISSSICHLTNESDGHTTSLYGIGFGPFIITNKHLFRRNNGTLVVQSLHGVFKVKDTTTLQQHLVDGRDMIIIRMPKDFPPFPQKLKFREPQREERICLVTTNFQTKSMSSMVSDTSCTFPMGDGIFWKHWIQTKDGQCGSPLVSTRDGFIVGIHSASNFTNTNNYFTSVPKNFMELLTNQEAQQWVSGWRLNADSVLWGGHKVFMVKPEEPFQPVKEATQL [S135M], the “area with substrate ENEYFQS” value is 0.0503, the “area with substrate ENFYFQS” value came out at 0.0757, the “area with substrate ENNYFQS” value was 0.0718 and the “area with substrate ENPYFQS” value was found to be 0.0523. The “area with substrate ENQYFQS” value came to 0.0847, the “area with substrate ENRYFQS” value was found to be 0.0491, the “area with substrate ENSYFQS” value is 0.0587 and the “area with substrate ENVYFQS” value is 0.0524.
Regarding MGESLCKGPRDYNPISSSICHLTNESDGHTTSLYGIGFGPFIITNKHLFRRNNGTLVVQSLHGVFKVKDTTTLQQHLVDGRDMIIIRMPKDFPPFPQKLKFREPQREERICLVTTNFQTKSMSSMVSDTSCTFPSGDGIFWKHWIQTKDGQCGSPLVSTRDGFIVGIHSASNFTNTNNYFTSVPKNFMELLTNQEAQQWVSGWRLNADSVLWGGHKVFMVKPEEPFQPVKEATQL [F6C], the “area with substrate ENEYFQS” value was 0.0621, the “area with substrate ENHYFQS” value came to 0.0588, the “area with substrate ENNYFQS” value came out at 0.0545 and the “area with substrate ENPYFQS” value worked out at 0.0536. Also, the “area with substrate ENSYFQS” value is 0.061.
Consider MGESLFKGPRDYNPISSSICHLTNESDGHTTSLYGIGFGPFIITNKHLFRRNNGTLVVQSLHGVFKVKDTTTLQQHLVDGRDMIIIRMIKDFPPFPQKLKFREPQREERICLVTTNFQTKSMSSMVSDTSCTFPSGDGIFWKHWIQTKDGQCGSPLVSTRDGFIVGIHSASNFTNTNNYFTSVPKNFMELLTNQEAQQWVSGWRLNADSVLWGGHKVFMVKPEEPFQPVKEATQL [P89I], for which the “area with substrate ENEYFQS” value was 0.0266, the “area with substrate ENFYFQS” value was found to be 0.0558, the “area with substrate ENIYFQS” value stood at 0.0696 and the “area with substrate ENRYFQS” value was 0.0398. The “area with substrate ENTYFQS” value was 0.0633 and the “area with substrate ENVYFQS” value is 0.0419.
As for MGESLFKGPRDYNPISSSICHLTNESDGHTTSLYGIGFGPFIITNKHLFRRNNGTLVVQSLHGVFKVKDTTTLQQHLVDGRDMIIIRMPKDWPPFPQKLKFREPQREERICLVTTNFQTKSMSSMVSDTSCTFPSGDGIFWKHWIQTKDGQCGSPLVSTRDGFIVGIHSASNFTNTNNYFTSVPKNFMELLTNQEAQQWVSGWRLNADSVLWGGHKVFMVKPEEPFQPVKEATQL [F92W], the “area with substrate ENEYFQS” value was determined as 0.0713, the “area with substrate ENSYFQS” value is 0.0499, the “area with substrate ENVYFQS” value was found to be 0.0842 and the “area with substrate ENYYFQS” value came to 0.067.
On to MGESLFKGPRDYNPISSSICHLTNESDGHTTSLYGIGFGPFIITNKHLFRRNNGTLVVQSLHGVFKVKDTTTLQQHLVDGRDMIIIRMPKDFPLFPQKLKFREPQREERICLVTTNFQTKSMSSMVSDTSCTFPSGDGIFWKHWIQTKDGQCGSPLVSTRDGFIVGIHSASNFTNTNNYFTSVPKNFMELLTNQEAQQWVSGWRLNADSVLWGGHKVFMVKPEEPFQPVKEATQL [P94L], for which the “area with substrate ENEYFQS” value was 0.0523, the “area with substrate ENFYFQS” value was determined as 0.0686, the “area with substrate ENIYFQS” value is 0.141 and the “area with substrate ENNYFQS” value stood at 0.0642. In addition, the “area with substrate ENPYFQS” value was found to be 0.0634, the “area with substrate ENQYFQS” value came out at 0.051 and the “area with substrate ENTYFQS” value was 0.0433.
With MGESLFKGPRDYNPISSSICHLTNESDGHTTSLYGIGFGPFIITNKHLFRRNNGTLVVQSLHGVFKVKDTTTLQQHLVDGRDMIIIRMPKDFPPFPQKLKFREPQREERICLVTTNFQTKSMSSMVSDTSCTFPSGDGIFWKHWIQTKDGQCGSPLVSTRDGFIVGIHSASNFTNTNNYFTSVPKNFMELLTNQEAQQWVSGWRLNADSVLWGGHKVFMFKPEEPFQPVKEATQL [V220F], the “area with substrate ENDYFQS” value came to 0.0633, the “area with substrate ENFYFQS” value was 0.042, the “area with substrate ENGYFQS” value stood at 0.0574 and the “area with substrate ENHYFQS” value turned out to be 0.0861. The “area with substrate ENIYFQS” value was 0.0877, the “area with substrate ENKYFQS” value was 0.0487, the “area with substrate ENMYFQS” value came to 0.0553 and the “area with substrate ENQYFQS” value was 0.0657. Also, the “area with substrate ENSYFQS” value turned out to be 0.0574, the “area with substrate ENTYFQS” value turned out to be 0.0781, the “area with substrate ENVYFQS” value was determined as 0.084 and the “area with substrate ENWYFQS” value worked out at 0.01. The “area with substrate ENYYFQS” value stood at 0.0581.
Turning to MGESLFKGPRDYNPISSSICHLTNESDGHTTSLYGIGFGPFIITNKHLFRRNNGTLVVQILHGVFKVKDTTTLQQHLVDGRDMIIIRMPKDFPPFPQKLKFREPQREERICLVTTNFQTKSMSSMVSDTSCTFPSGDGIFWKHWIQTKDGQCGSPLVSTRDGFIVGIHSASNFTNTNNYFTSVPKNFMELLTNQEAQQWVSGWRLNADSVLWGGHKVFMVKPEEPFQPVKEATQL [S60I], the “area with substrate ENEYFQS” value was found to be 0.0525, the “area with substrate ENGYFQS” value worked out at 0.0253, the “area with substrate ENKYFQS” value worked out at 0.0533 and the “area with substrate ENPYFQS” value was 0.0595. The “area with substrate ENVYFQS” value is 0.0636.
MGESLFKGPRDYNPISSSICHLTNESDGHTTSLYGIGFGPFIITNKHLFRRNNGTLVVQSLHGVFKVKDTTTLQQHLVDGRDMIIIRMPKDFPPFPQKLKFREPQREERICLVTTNFQTKSMSSMVSDTSCTFPSGDGIFWKHWIQTKDGQCGSPLVTTRDGFIVGIHSASNFTNTNNYFTSVPKNFMELLTNQEAQQWVSGWRLNADSVLWGGHKVFMVKPEEPFQPVKEATQL [S158T]: the “area with substrate ENEYFQS” value came to 0.0782, the “area with substrate ENIYFQS” value stood at 0.0957, the “area with substrate ENKYFQS” value was 0.0571 and the “area with substrate ENMYFQS” value is 0.078. The “area with substrate ENYYFQS” value is 0.0653.
As for MGESLFKGPRDYNPISSSICHLTNESDGHTTSLYGIGFGPFIITNKHLFRRNNGTLVVQSLHGVFKVKDTTTLQQHLVCGRDMIIIRMPKDFPPFPQKLKFREPQREERICLVTTNFQTKSMSSMVSDTSCTFPSGDGIFWKHWIQTKDGQCGSPLVSTRDGFIVGIHSASNFTNTNNYFTSVPKNFMELLTNQEAQQWVSGWRLNADSVLWGGHKVFMVKPEEPFQPVKEATQL [D79C], the “area with substrate ENEYFQS” value was 0.0587, the “area with substrate ENFYFQS” value was 0.0482, the “area with substrate ENKYFQS” value was found to be 0.0549 and the “area with substrate ENNYFQS” value was determined as 0.0634. The “area with substrate ENVYFQS” value stood at 0.0859.
